Results taken from the RNAGym collection of RNA variant scans (doi:10.7554/elife.90254).
Read counts are not given, so values of variants with three or more changes are uncertain.

B1: OR4K15 (parent)
chain: GUUAACGGUCAUAGGCCAUGGAAACUAGGAGCACCAUUUCGCUGCCAGUGAAGAAAUGAACAAAGAAAAUCUGGGCCAGGCAGGCAUCAAAAGAAAUAGUCUUGCGCUCAACCAGAAAGUCUGUAAUCAUUUUAAGGGUA

Variants of: B1
Test: self-cleavage, relative activity (ratio to wild type); higher = more cleavage; in vitro, sequencing; the parent is a self-cleaving ribozyme

Row | Variant | self-cleavage
1 | A33U G53U C81U | 0.44
2 | U37C A86G U122C | 1
3 | U37C A78C U108C | 0.01
4 | A33G U127C A135G | 0.34
5 | U37C A62G A95G U97G U130C | 0.38
6 | U37C A69U A82U | 0.09
7 | A33U U38A A56G A86C U122C | 1.21
8 | A36G G44A A94U | 2.12
9 | A33U A54G A126G | 1.98
10 | U37C A63G U100C | 2.18
11 | A33G U57C A82G | 0.2
12 | U37C A60U G80U | 0.16
13 | A36G U43A A91G U100C U131C A140G | 2.5
14 | U37C A52G A66U U72C A92U | 0.24
15 | A36G A95G U130C | 2.09
16 | U37A U43A A60U A78U | 0.3
17 | C35G U49C A64G A86U U103A A129U | 0.11
18 | A36U A78G A96G A126U | 0.15
19 | A33U A47G G79A U120C | 0.1
20 | C34A A90G U108C | 0.03
21 | U37A A78U A92U A96G | 0.09

Row | Variant | self-cleavage
22 | A36U A91G U100A U130C | 0.39
23 | A33U A96G A126G | 2.39
24 | A33U A55G A59G U87A U108C | 0.01
25 | A36U C42U A56G U70C U87C | 0.84
26 | U37C A62G A90U A118G | 2.25
27 | U37C A89G A94G U132A | 0.67
28 | A36G U39C A62U U100C | 2.15
29 | A33U A86G U102C U103C | 0.28
30 | A36G U49C G83A A116U | 0.92
31 | C34U A82G A94G | 0.28
32 | A33G U72G A78C C88G A89U | 0.08
33 | C35A A47U U49C | 0.47
34 | C34U A94U A135G | 1.77
35 | U37C A63G A116G | 1.39
36 | A36U A64G A135U | 2.04
37 | U37C A52U A86C U100C A111U | 0.14
38 | A36U U38C C45A A118G | 0.76
39 | U37C A86U A116G | 0.53
40 | U37C A56C A94G A118G | 0.59
41 | A36G A52G A54G U103C G106A U133C | 0.01
42 | A33U U38C C61G U87A A89U | 1.39

Row | Variant | self-cleavage
43 | A33U A59G A60G A69G A86G | 0.71
44 | U37C A67C A78U A135G | 0.43
45 | U37C A60C A116G | 1.09
46 | A33U A89G A129G | 0.99
47 | A36G A52G A63G U108C A125G A126G | 0.01
48 | A36U A60G U70C A78U C128U | 0.12
49 | A36G A68G A111U | 0.07
50 | A33G U37C A54U U100C | 1.97
51 | C34A A54G U70C A78U A126G A129G A135U | 0.05
52 | A36G A47G A67G A94U U130C | 0.98
53 | A36C A54G A55G | 1.18
54 | A33G G41A C105U U122C | 0.05
55 | U37C A62G U87C | 0.71
56 | A36G A64G A82U U130C | 0.11
57 | U37C A56G A89G U122C | 1.63
58 | A33G U38C A54U C109A | 0.34
59 | U37C A55U A78G A94G | 0.18
60 | U37C A78G A114G | 0.1
61 | A33G U37C A118U | 0.28
62 | A36G U43A A62G U87C A91G U122C A129U | 0.33
63 | U37C A59G A69U U87C U102C U108C U139A | 0

Row | Variant | self-cleavage
64 | C35U A56G A64G U72C A118G | 0.05
65 | A36G A47C A55G | 0.96
66 | A36G C113U A117G | 0.19
67 | A33U A67G A140G | 2.79
68 | A36U A116G U132A | 0.06
69 | A36U U37C G123A | 2.47
70 | U37A U49C G84A A111G A135G | 0
71 | C34A A94G A117G | 2.28
72 | A36G A89G A129G A135G | 1.17
73 | A36G G58A G79A A89U A118G | 0.19
74 | A36G A52G A89G A92G | 1.63
75 | A33G U49C A69G A114G | 0.15
76 | A33U A67U U72A A117G U131C | 0.2
77 | U37C A82G U120C | 0.13
78 | U37C A67G A94U | 1.04
79 | A36G C77A A78U | 2.07
80 | U37C A54G U57C A67G G136U | 1.32
81 | A33U A63G A89U A126U A134G | 1.57
82 | C34U A116G U122C | 0.29
83 | A36G U38C A98G U108C | 0.04
